Test results from US20240358826A1 (ORIONIS BIOSCIENCES, published 2024).

Target: T1, IL-1R (IL-1 Receptor) (UniProt P14778 18-569, limits assumed)
T1 sequence (looked up): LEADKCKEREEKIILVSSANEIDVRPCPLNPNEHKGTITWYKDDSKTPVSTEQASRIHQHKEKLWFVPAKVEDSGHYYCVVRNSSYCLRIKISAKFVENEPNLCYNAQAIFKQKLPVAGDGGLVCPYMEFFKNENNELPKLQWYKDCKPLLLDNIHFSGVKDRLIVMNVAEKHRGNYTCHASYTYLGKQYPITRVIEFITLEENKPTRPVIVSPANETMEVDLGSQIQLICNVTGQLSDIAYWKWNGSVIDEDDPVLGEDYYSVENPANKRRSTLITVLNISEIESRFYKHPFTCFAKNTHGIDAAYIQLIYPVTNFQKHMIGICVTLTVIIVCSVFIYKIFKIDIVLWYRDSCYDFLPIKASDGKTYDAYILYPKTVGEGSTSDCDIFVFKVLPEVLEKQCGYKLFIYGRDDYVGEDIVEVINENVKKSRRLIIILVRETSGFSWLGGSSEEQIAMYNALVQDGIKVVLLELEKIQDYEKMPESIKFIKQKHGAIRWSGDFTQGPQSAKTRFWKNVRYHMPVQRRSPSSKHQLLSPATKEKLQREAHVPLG
Test: cell-based or functional assay

Binder | NF-KB signal, -CD8 cells, 1 ng/ml | NF-KB signal, -CD8 cells, 10 ng/ml | NF-KB signal, -CD8 cells, 100 ng/ml | NF-KB signal, -CD8 cells, 1000 ng/ml
CD8 VHH_5GGS_Fc_hole + Fc-knob_20GGS_IL1α delta 1-6_Q153A (Fc fusion) chain 1: DVQLQESGGGLVQPGGSLRLSCAASGSIFSINVMGWYRQTPGKERELVAKITNFGITSYADSAQGRFTISRGNAKNTVYLQMNSLKPEDTAVYYCNLDTTGWGPPPYQYWGQGTQVTVSSGGSGGSGGSGGSGGSDKTHTCPPCPAPEAAGGPSVFLFPPKPKDTLMISRTPEVTCVVVDVSHEDPEVKFNWYVDGVEVHNAKTKPREEQYNSTYRVVSVLTVLHQDWLNGKEYKCQVSNKALPAPIEKTISKAKGQPREPQVCTLPPSRDELTKNQVSLSCAVKGFYPSDIAVEWESNGQPENNYKTTPPVLDSDGSFFLVSKLTVDKSRWQQGNVFSCSVMHEALHNHYTQKSLSLSPGK chain 2: [letters of human IgG1 Fc with changes not shown]GGSGGSGGSGGSGGSGGSGGSGGSGGSGGSGGSGGSGGSGGSGGSGGSGGSGGSGGSGGSLSNVKYNFMRIIKYEFILNDALNQSIIRANDQYLTAAALHNLDEAVKFDMGAYKSSKDDAKITVILRISKTQLYVTAQDEDQPVLLKEMPEIPKTITGSETNLLFFWETHGTKNYFTSVAHPNLFIATKQDYWVCLAGGPPSITDFAILENQA | 0.01 rel. to 100 ng/ml IL1α | 0.02 rel. to 100 ng/ml IL1α | 0.18 rel. to 100 ng/ml IL1α | 0.61 rel. to 100 ng/ml IL1α
CD8 VHH_5GGS_Fc_hole + Fc-knob_20GGS_IL1α delta 1-6_Q153G (Fc fusion) chain 1: DVQLQESGGGLVQPGGSLRLSCAASGSIFSINVMGWYRQTPGKERELVAKITNFGITSYADSAQGRFTISRGNAKNTVYLQMNSLKPEDTAVYYCNLDTTGWGPPPYQYWGQGTQVTVSSGGSGGSGGSGGSGGSDKTHTCPPCPAPEAAGGPSVFLFPPKPKDTLMISRTPEVTCVVVDVSHEDPEVKFNWYVDGVEVHNAKTKPREEQYNSTYRVVSVLTVLHQDWLNGKEYKCQVSNKALPAPIEKTISKAKGQPREPQVCTLPPSRDELTKNQVSLSCAVKGFYPSDIAVEWESNGQPENNYKTTPPVLDSDGSFFLVSKLTVDKSRWQQGNVFSCSVMHEALHNHYTQKSLSLSPGK chain 2: [letters of human IgG1 Fc with changes not shown]GGSGGSGGSGGSGGSGGSGGSGGSGGSGGSGGSGGSGGSGGSGGSGGSGGSGGSGGSGGSLSNVKYNFMRIIKYEFILNDALNQSIIRANDQYLTAAALHNLDEAVKFDMGAYKSSKDDAKITVILRISKTQLYVTAQDEDQPVLLKEMPEIPKTITGSETNLLFFWETHGTKNYFTSVAHPNLFIATKQDYWVCLAGGPPSITDFGILENQA | 0.01 rel. to 100 ng/ml IL1α | 0.01 rel. to 100 ng/ml IL1α | 0.13 rel. to 100 ng/ml IL1α | 0.86 rel. to 100 ng/ml IL1α
CD8 VHH_5GGS_Fc_hole + Fc-knob_20GGS_IL1α delta 1-6_D64G (Fc fusion) chain 1: DVQLQESGGGLVQPGGSLRLSCAASGSIFSINVMGWYRQTPGKERELVAKITNFGITSYADSAQGRFTISRGNAKNTVYLQMNSLKPEDTAVYYCNLDTTGWGPPPYQYWGQGTQVTVSSGGSGGSGGSGGSGGSDKTHTCPPCPAPEAAGGPSVFLFPPKPKDTLMISRTPEVTCVVVDVSHEDPEVKFNWYVDGVEVHNAKTKPREEQYNSTYRVVSVLTVLHQDWLNGKEYKCQVSNKALPAPIEKTISKAKGQPREPQVCTLPPSRDELTKNQVSLSCAVKGFYPSDIAVEWESNGQPENNYKTTPPVLDSDGSFFLVSKLTVDKSRWQQGNVFSCSVMHEALHNHYTQKSLSLSPGK chain 2: [letters of human IgG1 Fc with changes not shown]GGSGGSGGSGGSGGSGGSGGSGGSGGSGGSGGSGGSGGSGGSGGSGGSGGSGGSGGSGGSLSNVKYNFMRIIKYEFILNDALNQSIIRANDQYLTAAALHNLDEAVKFDMGAYKSSKGDAKITVILRISKTQLYVTAQDEDQPVLLKEMPEIPKTITGSETNLLFFWETHGTKNYFTSVAHPNLFIATKQDYWVCLAGGPPSITDFQILENQA | 0.01 rel. to 100 ng/ml IL1α | 0.02 rel. to 100 ng/ml IL1α | 0.3 rel. to 100 ng/ml IL1α | 0.85 rel. to 100 ng/ml IL1α
CD8 VHH_5GGS_Fc_hole + Fc-knob_20GGS_IL1α delta 1-6_D65A (Fc fusion) chain 1: DVQLQESGGGLVQPGGSLRLSCAASGSIFSINVMGWYRQTPGKERELVAKITNFGITSYADSAQGRFTISRGNAKNTVYLQMNSLKPEDTAVYYCNLDTTGWGPPPYQYWGQGTQVTVSSGGSGGSGGSGGSGGSDKTHTCPPCPAPEAAGGPSVFLFPPKPKDTLMISRTPEVTCVVVDVSHEDPEVKFNWYVDGVEVHNAKTKPREEQYNSTYRVVSVLTVLHQDWLNGKEYKCQVSNKALPAPIEKTISKAKGQPREPQVCTLPPSRDELTKNQVSLSCAVKGFYPSDIAVEWESNGQPENNYKTTPPVLDSDGSFFLVSKLTVDKSRWQQGNVFSCSVMHEALHNHYTQKSLSLSPGK chain 2: [letters of human IgG1 Fc with changes not shown]GGSGGSGGSGGSGGSGGSGGSGGSGGSGGSGGSGGSGGSGGSGGSGGSGGSGGSGGSGGSLSNVKYNFMRIIKYEFILNDALNQSIIRANDQYLTAAALHNLDEAVKFDMGAYKSSKDAAKITVILRISKTQLYVTAQDEDQPVLLKEMPEIPKTITGSETNLLFFWETHGTKNYFTSVAHPNLFIATKQDYWVCLAGGPPSITDFQILENQA | 0.02 rel. to 100 ng/ml IL1α | 0.03 rel. to 100 ng/ml IL1α | 0.25 rel. to 100 ng/ml IL1α | 0.83 rel. to 100 ng/ml IL1α
CD8 VHH_5GGS_Fc_hole + Fc-knob_20GGS_IL1α delta 1-6_C141H (Fc fusion) chain 1: DVQLQESGGGLVQPGGSLRLSCAASGSIFSINVMGWYRQTPGKERELVAKITNFGITSYADSAQGRFTISRGNAKNTVYLQMNSLKPEDTAVYYCNLDTTGWGPPPYQYWGQGTQVTVSSGGSGGSGGSGGSGGSDKTHTCPPCPAPEAAGGPSVFLFPPKPKDTLMISRTPEVTCVVVDVSHEDPEVKFNWYVDGVEVHNAKTKPREEQYNSTYRVVSVLTVLHQDWLNGKEYKCQVSNKALPAPIEKTISKAKGQPREPQVCTLPPSRDELTKNQVSLSCAVKGFYPSDIAVEWESNGQPENNYKTTPPVLDSDGSFFLVSKLTVDKSRWQQGNVFSCSVMHEALHNHYTQKSLSLSPGK chain 2: [letters of human IgG1 Fc with changes not shown]GGSGGSGGSGGSGGSGGSGGSGGSGGSGGSGGSGGSGGSGGSGGSGGSGGSGGSGGSGGSLSNVKYNFMRIIKYEFILNDALNQSIIRANDQYLTAAALHNLDEAVKFDMGAYKSSKDDAKITVILRISKTQLYVTAQDEDQPVLLKEMPEIPKTITGSETNLLFFWETHGTKNYFTSVAHPNLFIATKQDYWVHLAGGPPSITDFQILENQA | 0.02 rel. to 100 ng/ml IL1α | 0.02 rel. to 100 ng/ml IL1α | 0.11 rel. to 100 ng/ml IL1α | 0.7 rel. to 100 ng/ml IL1α
CD8 VHH_5GGS_Fc_hole + Fc-knob_20GGS_IL1α delta 1-6_W113F (Fc fusion) chain 1: DVQLQESGGGLVQPGGSLRLSCAASGSIFSINVMGWYRQTPGKERELVAKITNFGITSYADSAQGRFTISRGNAKNTVYLQMNSLKPEDTAVYYCNLDTTGWGPPPYQYWGQGTQVTVSSGGSGGSGGSGGSGGSDKTHTCPPCPAPEAAGGPSVFLFPPKPKDTLMISRTPEVTCVVVDVSHEDPEVKFNWYVDGVEVHNAKTKPREEQYNSTYRVVSVLTVLHQDWLNGKEYKCQVSNKALPAPIEKTISKAKGQPREPQVCTLPPSRDELTKNQVSLSCAVKGFYPSDIAVEWESNGQPENNYKTTPPVLDSDGSFFLVSKLTVDKSRWQQGNVFSCSVMHEALHNHYTQKSLSLSPGK chain 2: [letters of human IgG1 Fc with changes not shown]GGSGGSGGSGGSGGSGGSGGSGGSGGSGGSGGSGGSGGSGGSGGSGGSGGSGGSGGSGGSLSNVKYNFMRIIKYEFILNDALNQSIIRANDQYLTAAALHNLDEAVKFDMGAYKSSKDDAKITVILRISKTQLYVTAQDEDQPVLLKEMPEIPKTITGSETNLLFFFETHGTKNYFTSVAHPNLFIATKQDYWVCLAGGPPSITDFQILENQA | 0.01 rel. to 100 ng/ml IL1α | 0.02 rel. to 100 ng/ml IL1α | 0.11 rel. to 100 ng/ml IL1α | –
